Key:
[1] = target: T1, Wild type CD117 purified protein (human, UniProt P10721 partial chain, limits assumed); test: KD, method not stated (Table 8B)
T1 construct: Protein used in BLI/kinetics and cryo-EM; also called wt CD117; Wt CD117

[2] = target: T2, Cyno CD117 (cynomolgus, UniProt F6V858 26-520 (rhesus entry)); test: KD, method not stated (Table 8B)
T2 construct: also called cynomolgus CD117

[3] = target: T3, Wild type CD117 expressed on cells (M07e cells, unedited human CD34+ HSPCs) (human, UniProt P10721 26-976); test: summary Table 75, EC50 on M07e cells
T3 construct: Endogenous receptor on cells; also called wtCD117; WT CD117

[4] = target: T1, Wild type CD117 purified protein; test: binding kinetics to wild-type CD117 (FIG. 54)
[5] = target: T1, Wild type CD117 purified protein; test: binding kinetics, antibody 333.3 to 5.2 nM (FIGS. 58A-58D)
[6] = target: T3, Wild type CD117 expressed on cells …; test: flow cytometry (MFI) on M07e cells (FIG. 59)
[7] = target: T1, Wild type CD117 purified protein; test: monovalent KD, CD117 titrated (FIGS. 73A-73E)
[8] = target: T1, Wild type CD117 purified protein; test: summary Table 75 (repeats Table 71)
[9] = target: T3, Wild type CD117 expressed on cells …; test: cell-based or functional assay
[10] = target: T1, Wild type CD117 purified protein; test: binding kinetics, FIGS. 45A-45K
[11] = target: T4, CC128 variant of CD117 (Y259C + N260D) purified protein (human, UniProt P10721 partial chain, limits assumed); test: BLI (Octet), CC128 variant on SA biosensor, antibody titrated 1:2 from 2.5 µM
T4 construct: also called CC128-edited CD117 as purified protein
Experimental: Binding to the CC128 variant of CD117 was determined using streptavidin (SA) biosensors, which were allowed to bind the CC128 variant from a 5 μg/ml solution thereof. The SA biosensors were then titrated with monoclonal antibodies starting at 2.5 μM and using titration increments of 1:2. Data was analyzed using the Octet Analysis Studio Software.

[12] = target: T3, Wild type CD117 expressed on cells …; test: flow cytometry on M07e cells expressing wild type CD117, 1 h (FIG. 87A)
[13] = target: wild type CD117 extracellular domain (ECD) protein (human, UniProt P10721 partial chain); test: BLI (Octet), antibody on AHC biosensor, CD117 ECD titrated 1:2 from 345 nM
Experimental: The AHC biosensor data was analyzed using Octet Analysis Studio software.

[14] = target: T3, Wild type CD117 expressed on cells …; test: cell-based or functional assay; remark: listed apart in the source

T1 sequence (P10721 26-520 limits assumed): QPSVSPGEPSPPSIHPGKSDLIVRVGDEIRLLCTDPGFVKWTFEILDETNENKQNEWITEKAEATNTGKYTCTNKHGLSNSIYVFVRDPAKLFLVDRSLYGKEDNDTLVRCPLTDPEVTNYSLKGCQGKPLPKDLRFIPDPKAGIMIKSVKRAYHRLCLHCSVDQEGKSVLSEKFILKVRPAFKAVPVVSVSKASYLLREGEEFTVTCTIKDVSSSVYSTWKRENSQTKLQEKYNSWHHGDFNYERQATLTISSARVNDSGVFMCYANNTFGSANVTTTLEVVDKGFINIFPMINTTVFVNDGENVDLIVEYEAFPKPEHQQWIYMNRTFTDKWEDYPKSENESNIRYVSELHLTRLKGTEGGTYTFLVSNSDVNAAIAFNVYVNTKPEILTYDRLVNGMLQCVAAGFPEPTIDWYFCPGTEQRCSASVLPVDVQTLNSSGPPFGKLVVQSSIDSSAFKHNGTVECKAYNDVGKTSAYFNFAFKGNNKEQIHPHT

koff [5] [s⁻¹]	kon [5] [M⁻¹ s⁻¹]	EC50 [6] [nM]	Kd [11] [nM]	EC50 [12] [nM]	Kd [13] [nM]	koff [13] [s⁻¹]	kon [13] [M⁻¹ s⁻¹]	Binder	IC50 [M], viability of unedited HSCs with 100 ng/mL SCF, 5-7 days [9] [M]	also measured
0.00165	228000	0.126	–	–	–	–	–	ABTx052 (antibody, human IgG1, kappa, human IgG1; also called mAb-7; mAB-7) heavy: QVQLVQSGAAVKKPGESLKISCKGSGYRFTSYWIGWVRQMPGKGLEWMGIIYPGDSDTRYSPSFQGQVTISAGKSISTAYLQWSSLKASDTAMYYCARHGRGYNGYEGAFDIWGQGTMVTVSS[human IgG1 constant region not written out] light: AIQLTQSPSSLSASVGDRVTITCRASQGISSALAWYQQKPGKAPKLLIYDASSLESGVPSRFSGSGSGTDFTLTISSLQPEDFATYYCQQFNSYPLTFGGGTKVEIKRTVAAPSVFIFPPSDEQLKSGTASVVCLLNNFYPREAKVQWKVDNALQSGNSQESVTEQDSKDSTYSLSSTLTLSKADYEKHKVYACEVTHQGLSSPVTKSFNRGEC	–	Kd [1]: < 0.001 nM; Kd [2]: < 0.001 nM; EC50 [3]: 0.17 nM; koff [4]: 0.00118 s⁻¹; kon [4]: 127000 M⁻¹ s⁻¹; Kd [7]: 8.05 nM; koff [7]: 0.00247 s⁻¹; kon [7]: 307000 M⁻¹ s⁻¹; Kd [8]: 8.05 nM
0.00234	246000	0.0836	–	–	–	–	–	ABTx271 (antibody, human IgG1, kappa) heavy: QVQLVQSGAAVKKPGESLKISCKGSGYRFTSYWIGWVRQMPGKGLEWMGIIYPGDSDTRYSPSFQGQVTISAGKSISTAYLQWSSLKASDTAMYYCARHGRGYDAYDGAFDIWGQGTMVTVSS[human IgG1 constant region not written out] light: AIQLTQSPSSLSASVGDRVTITCRASQGISSALAWYQQKPGKAPKLLIYDASSLESGVPSRFSGSGSGTDFTLTISSLQPEDFATYYCQQTNSYPLTFGGGTKVEIKRTVAAPSVFIFPPSDEQLKSGTASVVCLLNNFYPREAKVQWKVDNALQSGNSQESVTEQDSKDSTYSLSSTLTLSKADYEKHKVYACEVTHQGLSSPVTKSFNRGEC	1.64e-06	Kd [5]: 9.53 nM
–	–	–	26.6	0.154	5.6	0.00911	1.63e+06	ABTx135 (antibody, human IgG1, kappa, L234A L235A, ABTx052 with LALADA in the Fc; also called ABTx052_LALADA; mAb-7 with an LALADA Fc domain alteration) heavy: QVQLVQSGAAVKKPGESLKISCKGSGYRFTSYWIGWVRQMPGKGLEWMGIIYPGDSDTRYSPSFQGQVTISAGKSISTAYLQWSSLKASDTAMYYCARHGRGYNGYEGAFDIWGQGTMVTVSSASTKGPSVFPLAPSSKSTSGGTAALGCLVKDYFPEPVTVSWNSGALTSGVHTFPAVLQSSGLYSLSSVVTVPSSSLGTQTYICNVNHKPSNTKVDKKV[human IgG1 Fc with L234A L235A D265A (EU numbers) not written out] light: AIQLTQSPSSLSASVGDRVTITCRASQGISSALAWYQQKPGKAPKLLIYDASSLESGVPSRFSGSGSGTDFTLTISSLQPEDFATYYCQQFNSYPLTFGGGTKVEIKRTVAAPSVFIFPPSDEQLKSGTASVVCLLNNFYPREAKVQWKVDNALQSGNSQESVTEQDSKDSTYSLSSTLTLSKADYEKHKVYACEVTHQGLSSPVTKSFNRGEC	5.34e-07	Kd [10]: 0.26 nM; koff [10]: 0.000176 s⁻¹; kon [10]: 677000 M⁻¹ s⁻¹; IC50 (M), depletion of human CD34+ HSPCs [14]: 1.36e-06 M
–	–	–	4.67	0.168	5.52	0.00814	1.47e+06	ABTx309 (antibody, human IgG1, kappa, L234A L235A, Fc with LALADA) heavy: QVQLVQSGAAVKKPGESLKISCKGSGYRFTSYWIGWVRQMPGKGLEWMGIIYPGDSDTRYSPSFQGQVTISAGKSISTAYLQWSSLKASDTAMYYCARHGRGYDAYDGAFDIWGQGTMVTVSSASTKGPSVFPLAPSSKSTSGGTAALGCLVKDYFPEPVTVSWNSGALTSGVHTFPAVLQSSGLYSLSSVVTVPSSSLGTQTYICNVNHKPSNTKVDKKV[human IgG1 Fc with L234A L235A D265A (EU numbers) not written out] light: AIQLTQSPSSLSASVGDRVTITCRASQGISSALAWYQQKPGKAPKLLIYDASSLESGVPSRFSGSGSGTDFTLTISSLQPEDFATYYCQQTNSYPLTFGGGTKVEIKRTVAAPSVFIFPPSDEQLKSGTASVVCLLNNFYPREAKVQWKVDNALQSGNSQESVTEQDSKDSTYSLSSTLTLSKADYEKHKVYACEVTHQGLSSPVTKSFNRGEC	–	–

From US20260166085A1 (BEAM THERAPEUTICS, published 2026)
